The other results are listed elsewhere or left out. The full chains were built here from the parent and the listed change. Values near 0.05 are background.
B1: TEV protease; numbered along this chain (parent)
chain: MGESLFKGPRDYNPISSSICHLTNESDGHTTSLYGIGFGPFIITNKHLFRRNNGTLVVQSLHGVFKVKDTTTLQQHLVDGRDMIIIRMPKDFPPFPQKLKFREPQREERICLVTTNFQTKSMSSMVSDTSCTFPSGDGIFWKHWIQTKDGQCGSPLVSTRDGFIVGIHSASNFTNTNNYFTSVPKNFMELLTNQEAQQWVSGWRLNADSVLWGGHKVFMVKPEEPFQPVKEATQL

Variants of: B1
Experiment: raw area under fraction-flipped curve 0-4 h after induction (AUC4h, not background-subtracted), DNA-recorder readout of cleavage of the substrate (dimensionless); higher = more cleavage of the substrate by the protease variant
Details: temperature: 34 °C; time window: 0-4 h after rhamnose induction
Procedure: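 In vivo DNA recorder in E. coli TOP10(DE3) ΔrhaA at 34 °C. Each TEVp single-site mutant (parent TEVp 0) is paired with a single-site variant of the 7-mer TEVs (canonical ENLYFQ|S). The substrate sits between flexible linkers in a Bxb1-sfGFP-TEVs-SsrA fusion, so cleavage stabilises Bxb1 and speeds flipping of a recombination array, read by NGS. The value is the raw area under the fraction-flipped curve over 0-4 h after rhamnose induction (AUC4h), with ≥20 reads per time point. It is not background-subtracted; inactive controls average about 0.047.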
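Further: Bxb1 expression induced with 0.2% (w/v) L-rhamnose at OD600 near 0.5, cultures sampled hourly, flipped fraction per protease–substrate barcode pair counted by paired-end Illumina sequencing.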

Row | Variant | area with substrate ENLYAQS | area with substrate ENLYDQS | area with substrate ENLYEQS | area with substrate ENLYGQS | area with substrate ENLYHQS | area with substrate ENLYIQS | area with substrate ENLYKQS | area with substrate ENLYMQS | area with substrate ENLYNQS | area with substrate ENLYPQS | area with substrate ENLYQQS | area with substrate ENLYWQS | area with substrate ENLYRQS | area with substrate ENLYSQS | area with substrate ENLYVQS | area with substrate ENLYYQS | area with substrate ENLYCQS | area with substrate ENLYLQS | area with substrate ENLYTQS
1 | MGESLFKGPRDYNPISSSICHLTNESDGHTTSLYGIGFGPFIITNKHLFRRNNGTLVVQSLHGVFKVKDTTTLQQHLVDGRDMIIIRMPKDFPPFPQKLKFREPQREERICLVTTNFQTKSMSSMVSDTSCTFPSGDGIFWKHWIQTKDGQCGSPLVSTRDGFIVGIHSASNFTNTNNYFTSVPKNFMELLTNQEAQQWVSGWRLNADSVLWGGHKVFMVKPEEPFQPVKEATML [Q234M] | 0.0744 | 0.0563 | 0.0688 | 0.069 | 0.0601 | 0.0979 | 0.075 | 0.079 | 0.0629 | 0.0672 | 0.0635 | 0.078 | – | – | – | – | – | – | –
2 | MGESLFKGPRDYNPISSSICHLTNESDGHTTSLYGIGFGPFIITNKHLFRRNNGTLVVQSLHGVFKVKDTTTLQQHLVDGRDMIIIRMPKDFPPFPQKLKFREPQREERICLVTTNFQTKSMSSMVSDTSCTFPSGDGIFWKHWIQTKDGQCGSPLVSTRDGFIVGIHSASNFTNTNNYFTSVPKNFMELLTNQEAQQWVSGWRLNADSVLWGGHKVFMVKPEEPFRPVKEATQL [Q227R] | 0.0652 | 0.0644 | – | 0.0645 | – | 0.119 | 0.0589 | – | 0.0765 | 0.0592 | 0.0684 | – | 0.0596 | 0.0725 | 0.147 | 0.0644 | – | – | –
3 | MGESLFKGPRDYNPISSSICHLTNESDGHTTSLYGIGFGPFIITNKHLFRRNNGTLVVQSLHGVFKVKDTTTLQQHLVDGRDMIIIRMPKDFPPFPQKLKFREPQREERICLVTTNFQTKSMSSMVSDTSCTFPSGDGIFWKHWIQTKDGQCGSPLVSTRDGFIVGIHSASNFTNTNNIFTSVPKNFMELLTNQEAQQWVSGWRLNADSVLWGGHKVFMVKPEEPFQPVKEATQL [Y179I] | 0.0727 | 0.0621 | 0.0769 | – | 0.0581 | 0.0669 | 0.0277 | – | – | 0.0518 | 0.0551 | – | 0.0749 | – | – | 0.069 | 0.0631 | – | –
4 | MGESLFKGPRDYNPISSSICHLTNESDGHTTSLYGIGFGPFIITNKHLFRRNNGTLVVQSLHGVFKVKDTTTLQQHLVDGRDMIIIRMPKDFPPFPQKLKFREPQREERICLVTTNFQTKSMSSMVSDTSCTFPSGDGIFWKHWIQTKDGQCGSPLVSTRDGFIVGIHSASNFTNTNNYFTSVPKNFMELLTNQEAQQWVSGWALNADSVLWGGHKVFMVKPEEPFQPVKEATQL [R204A] | 0.124 | 0.0718 | 0.0624 | 0.0654 | 0.0662 | 0.139 | 0.0703 | 0.1 | – | 0.0721 | 0.0378 | 0.0804 | 0.0593 | 0.0839 | 0.116 | – | – | – | –
5 | MGESLFKGPRDYNPISSSICHLTNESDGHTTSLYGIGFGPFIITNKHLFRRNNGTLVVQSLHGVFKVKDTITLQQHLVDGRDMIIIRMPKDFPPFPQKLKFREPQREERICLVTTNFQTKSMSSMVSDTSCTFPSGDGIFWKHWIQTKDGQCGSPLVSTRDGFIVGIHSASNFTNTNNYFTSVPKNFMELLTNQEAQQWVSGWRLNADSVLWGGHKVFMVKPEEPFQPVKEATQL [T71I] | 0.0598 | 0.0651 | 0.065 | – | 0.003 | – | – | 0.0778 | 0.0577 | 0.0839 | 0.0615 | 0.0809 | – | – | – | 0.0619 | – | – | –
6 | MGESLFKGPRDYNPISSSICHLTNESDGHTTSLYGIGFGPFIITNKHLFRRNNGTLVVQSLHGVFKVKDTTTLQQHLVDGRDMIIIRMPKDFPPFPQKLKFREPQREERICLVTTNFQTKSMSSMVSDTSCTFPSGDGIFWKHWIQTKDGQCGSPLVSTRDGFIVGIHSASNFTNTNTYFTSVPKNFMELLTNQEAQQWVSGWRLNADSVLWGGHKVFMVKPEEPFQPVKEATQL [N178T] | 0.0709 | 0.0675 | 0.0359 | 0.055 | 0.0586 | 0.113 | 0.0305 | 0.0546 | 0.0631 | – | 0.0591 | – | 0.0582 | 0.0516 | 0.0601 | 0.0605 | 0.0752 | – | –
7 | MGESLFKGPRDYNPISSSICHLTNESDGHTTSLYGIGFGPFIITNKHLFRRNNGTLVVQSLHGVFKVKDTTTLQQHLVDGRDMIIIRMPKDFPPFPQKLKFREPQREERICLVTTNFQTKSMSSMVSDTSCTFPSGDGIFWKHWIQTKDGQCGSPLVSTRDGFIVGIHSASNFTNTNNYFTSVPKNFMELLTNQEAQQWVSGWRLNADSVLWGGHKVFMYKPEEPFQPVKEATQL [V220Y] | 0.0724 | 0.0594 | 0.0809 | – | 0.0645 | 0.0829 | 0.029 | 0.0796 | 0.053 | 0.0584 | – | – | 0.0585 | – | 0.115 | – | – | 0.063 | –
8 | MGESLFKGPRDYNPISSSICHLTNESDGHTTSLYGIGFGPFIITNKHLFRRNNGTLVVQSLHGVFKVKDTTTLQQHLVDGRDMIIIRMPKDFPPFPQKLKFREPQREERICLVTTNFQTKSMSSMVSPTSCTFPSGDGIFWKHWIQTKDGQCGSPLVSTRDGFIVGIHSASNFTNTNNYFTSVPKNFMELLTNQEAQQWVSGWRLNADSVLWGGHKVFMVKPEEPFQPVKEATQL [D128P] | 0.0821 | 0.0526 | – | 0.0835 | – | – | – | 0.108 | 0.0668 | 0.0755 | 0.0823 | – | 0.0637 | – | – | 0.0625 | 0.149 | 0.0618 | 0.104
9 | MGESLFKGPRDYNPISSSICHLTNESDGHTTSLYGIGFGPFIMTNKHLFRRNNGTLVVQSLHGVFKVKDTTTLQQHLVDGRDMIIIRMPKDFPPFPQKLKFREPQREERICLVTTNFQTKSMSSMVSDTSCTFPSGDGIFWKHWIQTKDGQCGSPLVSTRDGFIVGIHSASNFTNTNNYFTSVPKNFMELLTNQEAQQWVSGWRLNADSVLWGGHKVFMVKPEEPFQPVKEATQL [I43M] | 0.0721 | 0.0643 | 0.0626 | 0.0645 | 0.0532 | – | 0.0554 | – | 0.0546 | 0.0629 | 0.0621 | 0.0699 | 0.0679 | 0.0695 | 0.0904 | – | – | 0.066 | 0.0544

Reference: the supplement of paper PMC12217912
